Experimental data: PubChem BioAssay AID686978 (National Center for Advancing Translational Sciences (NCATS), 2013)
Out of some 420,000 compounds screened, about 64,000 (15%) were called active. Inconclusive means that the source gave no clear call. Such entries were picked first, then a sample of the others. Calls come from the whole dose curve; as a rule, active = well fitted inhibition curve with a large enough effect; inconclusive = small, poorly fitted or top-dose-only effect; inactive = flat fitted curve, though single readings scatter. Potencies of inconclusive entries are left out as doubtful fits. Where a structure was tested more than once in an assay, its records may differ in their call.

assay: qHTS for Inhibitors of human tyrosyl-DNA phosphodiesterase 1 (TDP1): qHTS in cells in absence of CPT; conditions: DT40 Tdp1-/- hTDP1 cells, no CPT, ATP luminescence, 48 h; activity change, negative = growth inhibition: at 46.2 µM (top of the series) unless noted; note: nearly all actives have a fitted effect of over 55% in size
How it was run: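 DT40 Tdp1-/-;hTDP1 cells, no CPT (DMSO vehicle only), 400 cells/well; compounds pin-transferred; ≥48 hr, 37 °C; CellTiter-Glo 30 min RT dark, luminescence read.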
% is set by controls: 0 for no effect and ±100 for the full control effect; potency is the fitted concentration of half-maximal effect; tags give direction and shape of the fitted curve.

Structure (SMILES)	activity change, negative = growth inhibition	Potency
Cc1ccc(C)c(NC(=O)C(Sc2nncn2C)c2ccccc2)c1 (stereo not drawn)	inactive: -7.64%	
CCOCCCNC(=O)c1ccc2c(c1)ncn2-c1cccc(C)c1		inconclusive [inhibitor, single point]
O=C(NCCO)C(=O)NCC1OCCCN1S(=O)(=O)c1cc(F)ccc1F (stereo not drawn)	inactive: 12.6%	
O=C(COc1ccccc1)Nc1ccc(-c2ccc(N3CCOCC3)nn2)cc1		inconclusive [inhibitor, single point]
COc1ccc(C2C(C(=O)O)c3ccccc3C(=O)N2C)cc1Br (stereo not drawn)	inactive: -14.1%	
C=CCc1cc(OC)ccc1OCCCCn1cncn1	inactive: -23%	
O=C(CSc1ccsc1[N+](=O)[O-])Nc1cc(F)ccc1F		inconclusive [inhibitor, single point]
CCOc1ccc(N2CC(c3nc4ccccc4n3CCCOc3ccccc3OC)CC2=O)cc1 (stereo not drawn)		active: 8.2 µM
CCc1nnc(SCc2cccc(F)c2)c2cc3sc(C)cc3n12		inconclusive [inhibitor, single point]
COCCNc1nc(NCCNC(C)=O)c2sc(-c3ccccc3)cc2n1		inconclusive [inhibitor, single point]
COc1ccc(NC(=O)CNc2ccccc2C(C)=O)cc1S(=O)(=O)N1CCOCC1	inactive: -21.7%	
COc1ccc(CCN(C)C2CCCN(S(=O)(=O)c3ccc(C)cc3)C2)cc1OC (stereo not drawn)		inconclusive [inhibitor, partial curve, poor fit]
CCS(=O)(=O)N1CC(=O)N(c2ccc(Cl)cc2C)C(C)(C(=O)NC2CCCCCC2)C1 (stereo not drawn)		inconclusive [inhibitor, single point]
O=C(Nc1ccc(-c2nnc(-c3ccccc3)o2)cc1)C1CCCO1 (stereo not drawn)		inconclusive [inhibitor, partial curve]
c1csc(-c2nnc(N3CCOCC3)c3ccccc23)c1		inconclusive [inhibitor, single point]
CN(Cc1cnc2ccccn12)C1CCN(c2cccc(NC(=O)c3cccnc3)c2)CC1		inconclusive [inhibitor, single point]
O=C(CCc1nnc(-c2ccsc2)o1)NCc1ccccc1OC(F)(F)F		inconclusive [inhibitor, single point]
CC1=C(C(=O)Nc2ccccn2)C(c2cccnc2)n2nnnc2N1 (stereo not drawn)	inactive: 1.81%	
O=C(Nc1nonc1-c1ccc(Cl)cc1)c1ccccc1F		inconclusive [inhibitor, single point]
COc1ccc(CCNC(=O)C2(c3cccs3)CCOCC2)cc1	inconclusive: -32.3% [inhibitor]	
CCOC(=O)c1scc(-c2ccccc2)c1S(=O)(=O)Nc1ccc(N(C)C)cc1		inconclusive [inhibitor, single point]
Cc1c(C)c(C)c(CN2CCCC2)c(C)c1C	inactive: -22.7%	
Cc1cccn2c(=O)c3cc(C#N)c(=NC(=O)c4ccco4)n(Cc4ccco4)c3nc12		inconclusive [inhibitor, single point]
COc1ccc(NC(=O)COc2ccc(Br)cc2)c(OC)c1		inconclusive [inhibitor, single point]
COc1ccccc1C1CC(c2ccc(Cl)cc2)Nc2nc(N)nn21 (stereo not drawn)		active: 16.4 µM

Structure (SMILES)	activity change, negative = growth inhibition	Potency
O=C(/C=C/c1ccccc1)NC1CCSC1=O (stereo not drawn)	inactive: -15.1%	
O=C1c2ccccc2C(O)(c2ccccc2)N1c1ccncc1 (stereo not drawn)		inconclusive [inhibitor, single point]
CCCCC(=O)Nc1ccc(Cl)cc1F	inactive: 11.3%	
CCOC(=O)c1c(C)[nH]c(C(=O)N(C)Cc2cccc(OC)c2OC)c1C		inconclusive [inhibitor, single point]
COc1ccc(-n2c(-c3ccc(C)cc3)n[nH]c2=S)cc1		inconclusive [inhibitor, single point]
Cc1cccc(NC(=O)CSc2nnc(-c3ccco3)c(-c3ccco3)n2)c1		active: 18.4 µM
Cc1c(NC(=O)CN2CCN(c3ccc([N+](=O)[O-])cc3)CC2)c(=O)n(-c2ccccc2)n1C		inconclusive [inhibitor, partial curve]
CCOC(=O)c1c(NC(=O)c2cccs2)sc2c1CCC2	inactive: -0.157%	
COc1ccc2c(c1)CSC(c1ccccc1)C2=O (stereo not drawn)		inconclusive [inhibitor, partial curve]
Cc1cc(C)cc(NC(=O)N2CCNC(=O)C2CC(=O)Nc2cc(Cl)ccc2Cl)c1 (stereo not drawn)		inconclusive [inhibitor, single point]
O=C(COc1ccccc1C(=O)Nc1ccccc1)Nc1ccccc1Br		inconclusive [inhibitor, single point]
COc1ccc(N(CC(=O)N2c3ccccc3CC2C)S(=O)(=O)c2c(C)nn(C)c2C)cc1 (stereo not drawn)		active: 18.4 µM
CC(C)(C)N(Cc1cc2ccccc2[nH]c1=O)C(=O)C1CCCCC1		inconclusive [inhibitor, single point]
O=C(N/N=C/c1cccnc1)c1ccc(NC(=O)c2ccc(F)cc2)cc1	inactive: -26.4%	
CCOC(=O)[C@]12CCC=C1N(Cc1ccc3c(c1)OCO3)C(=O)[C@H](CC(=O)N1CCOCC1)C2	inactive: -2.55%	
CCOC(=O)Nc1nc(-c2ccccc2)c(C(=O)c2ccc(Cl)cc2)s1		active: 0.92 µM
CS(=O)(=O)N1CCN(c2ccc([N+](=O)[O-])c(NCc3ccccc3)c2)CC1		inconclusive [inhibitor, single point]
Cc1nn2c(C)c(C(=O)N3CCN(c4ccccc4F)CC3)cnc2c1-c1ccc(F)cc1		inconclusive [inhibitor, single point]
COC(=O)c1cccc(CN2C(=O)C(C)Sc3ccc(C)cc32)c1 (stereo not drawn)		inconclusive [inhibitor, single point]
Nc1nc2ncc(C(=O)c3cc(F)ccc3O)cc2s1		inconclusive [inhibitor, single point]
CC(C)C(c1nnnn1C(C)(C)C)N1CCC(Cc2ccccc2)CC1 (stereo not drawn)		inconclusive [inhibitor, single point]
Cc1ccc(NC(=O)c2noc3c2CCC3)cc1C		inconclusive [inhibitor, single point]
Cn1c(=O)c2sc3c(c2n(CC(=O)Nc2ccccc2)c1=O)COC(C)(C)C3	inactive: 7.06%	
Cc1c(C)c(C)c2[nH]c(-c3ccc4c(c3)OCO4)nc2c1C		active: 18.4 µM
Clc1ccc(Cn2nc(-c3ccccc3)nc2-c2ccccc2)cc1		inconclusive [inhibitor, single point]

Structure (SMILES)	activity change, negative = growth inhibition	Potency
COc1ccc(-c2nc(C(N)=O)c3[nH]c(=O)n(-c4cccc(Cl)c4)c3n2)cc1OC		active: 20.6 µM
O=S(=O)(NCC(c1cccnc1)N1CCN(c2ccc(F)cc2)CC1)c1cc(F)ccc1F (stereo not drawn)		inconclusive [inhibitor, partial curve]
CCCC(=O)NC(c1ccc(C)cc1)c1ccc2cccnc2c1O (stereo not drawn)		active: 1.16 µM
COc1ccc(N(CC(=O)Nc2cc([N+](=O)[O-])ccc2C)S(C)(=O)=O)cc1OC	inactive: -1.61%	
Cc1ccc(S(=O)(=O)Nc2cccc(C(=O)NCC(c3ccco3)N3CCCCC3)c2)cc1F (stereo not drawn)		active: 20.6 µM
OCC1(Cc2cccc(C(F)(F)F)c2)CCN(Cc2cc3ccccc3o2)CC1		active: 16.4 µM
O=C(Nc1ccc(S(=O)(=O)N2CCOCC2)cc1)C1CCN(S(=O)(=O)c2ccccc2)CC1		active: 16.4 µM
COc1cccc(CN(C(=O)COc2ccc(Cl)cc2)C2CCS(=O)(=O)C2)c1 (stereo not drawn)		inconclusive [inhibitor, partial curve]
Cc1cccc(CCNC(=O)C2CCC(CNS(=O)(=O)c3ccccc3)CC2)c1 (stereo not drawn)		inconclusive [inhibitor, single point]
Cc1cc(C)cc(NC(=O)CCc2c(C)nn(-c3ccc(N4CCCCC4)nn3)c2C)c1		inconclusive [inhibitor, single point]
C=CCNc1nc(NC2CCN(C)CC2)c2cc(OC)c(OC)cc2n1		inconclusive [inhibitor, single point]
O=c1c(O)c(-c2ccc(O)c(O)c2)oc2cc(O)ccc12		active: 6.68 µM
CCc1ccc2nc(NC(=O)c3cc(C)on3)sc2c1		active: 8.2 µM
Cc1nc2ccn(Cc3ccco3)c(=O)c2cc1C(=O)NCc1ccccc1F	inactive: -25.5%	
COc1ccc(C2=Nc3ccccc3NC(=O)C2N(Cc2ccccc2)C(=O)C2=NNC(=O)CC2)cc1 (stereo not drawn)		inconclusive [inhibitor, single point]
CC(C)c1ccc(/C=C/C(=O)Nn2cnnc2)cc1	inactive: 0.514%	
COc1ccc(Cl)cc1NC(=O)CSC1=Nc2ccccc2C2=NC(CCC(=O)NCc3ccc(F)cc3)C(=O)N12 (stereo not drawn)		active: 16.4 µM
O=C(CN1C(=O)COc2ccccc21)NCCCN1CCOCC1	inactive: -16%	
CNS(=O)(=O)Cc1ccc2[nH]cc(CCN(C)C)c2c1		active: 4.61 µM
N#Cc1ccccc1Cn1c(=O)n(CCCC(=O)NCc2ccccc2Cl)c(=O)c2ccccc21		inconclusive [inhibitor, partial curve]
O=C(Nc1ccc(F)c(Cl)c1)C1CCN(C(=O)c2ccc(F)cc2)CC1		inconclusive [inhibitor, single point]
COC(=O)c1cccnc1Oc1ccccc1	inactive: -0.432%	
CSCCC(NC(=O)c1ccc([N+](=O)[O-])cc1Cl)C(=O)OCC(=O)C12CC3CC(CC(C3)C1)C2 (stereo not drawn)		inconclusive [inhibitor, single point]
